This test deals with T1, IL-2 receptor on human whole-blood cells (regulatory T cells) (human, UniProt P01589 22-272; P14784 27-551; P31785 23-369).
T1 sequence (looked up) 1: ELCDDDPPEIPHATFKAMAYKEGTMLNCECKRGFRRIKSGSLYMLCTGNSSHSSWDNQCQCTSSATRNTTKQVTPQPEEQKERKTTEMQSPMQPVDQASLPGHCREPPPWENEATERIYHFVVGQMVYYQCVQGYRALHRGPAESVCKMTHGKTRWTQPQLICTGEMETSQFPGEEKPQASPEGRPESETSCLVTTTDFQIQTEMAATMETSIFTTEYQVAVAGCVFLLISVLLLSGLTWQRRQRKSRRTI
T1 sequence (looked up) 2: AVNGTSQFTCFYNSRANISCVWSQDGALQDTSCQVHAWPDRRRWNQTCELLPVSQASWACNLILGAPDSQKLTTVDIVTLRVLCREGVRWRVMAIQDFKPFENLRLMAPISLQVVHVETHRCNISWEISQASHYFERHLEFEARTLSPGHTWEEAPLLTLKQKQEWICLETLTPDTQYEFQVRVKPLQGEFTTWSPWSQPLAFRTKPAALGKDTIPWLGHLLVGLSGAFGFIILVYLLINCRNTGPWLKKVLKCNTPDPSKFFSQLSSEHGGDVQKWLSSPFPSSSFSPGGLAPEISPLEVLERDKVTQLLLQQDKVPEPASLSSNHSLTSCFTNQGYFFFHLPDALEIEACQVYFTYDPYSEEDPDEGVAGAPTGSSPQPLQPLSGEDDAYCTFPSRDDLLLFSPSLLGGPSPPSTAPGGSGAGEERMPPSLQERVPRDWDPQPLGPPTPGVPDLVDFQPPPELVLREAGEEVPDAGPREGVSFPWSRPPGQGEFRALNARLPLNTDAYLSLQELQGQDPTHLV
T1 sequence (looked up) 3: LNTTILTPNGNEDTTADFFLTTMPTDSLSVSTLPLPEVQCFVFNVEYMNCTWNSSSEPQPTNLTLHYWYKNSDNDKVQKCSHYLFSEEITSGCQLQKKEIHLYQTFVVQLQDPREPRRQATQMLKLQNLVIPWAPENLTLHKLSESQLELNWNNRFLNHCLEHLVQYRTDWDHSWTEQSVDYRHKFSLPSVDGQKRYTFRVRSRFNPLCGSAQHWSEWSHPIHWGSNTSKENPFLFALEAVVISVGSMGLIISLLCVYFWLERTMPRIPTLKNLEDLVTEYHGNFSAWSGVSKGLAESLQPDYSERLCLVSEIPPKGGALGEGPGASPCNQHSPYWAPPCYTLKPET
In words: cell-based or functional assay.

B1: IL-2N88R-C4bpß-scFvE06 targeted fusion protein (mutated IL-2 N88R fused to the N-terminus of C4BPß, C4BPß fused to scFvE06, with HIS tag) (other, not shown: small tags and cut ends)
chain: [about 150 residues with changes not written out]GGGGSGGGGSGGGGSIQEAPKPECEKALLAFQESKNLCEAMENFMQQLKESGMTMEELKYSLELKKAELKAKLLGGGGSGGGGSGGGGSDIVMTQSPSSLSVSAGKKVTISCTASESLYSSKHKVHYLAWYQKKPEQSPKLLIYGASNRYIGVPDRFTGSGSGTDFTLTISSVQVEDLTHYYCAQFYSYPLTFGAGTKLEIKGGGGSGGGGSGGGGSEVKLVESGGGLVQPGGSLRLSCATSGFTFSDFYMEWVRQAPGKRLEWIAASRNKANDYTTEYADSVKGRFIVSRDTSQSILYLQMNALRAEDTAIYYCARDYYGSSYWYFDVWGAGTTVTVSS
In the case of B1, the “pSTAT5 EC50 on regulatory T cells, human whole blood, flow cytometry” value is around 650 ng/mL.

Source of the values: US20240376172A1 (ILTOO PHARMA, published 2024).
